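All cell lines were grown in 96-well plates and treated with compound for 48 hours. Here, GI50 denotes the concentration required for 50% inhibition of growth.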 The source made the active and inactive calls. Rule as the data show it: active = GI50 up to about 1.1 µM and inactive = higher.
System: NCI-H322M
Assay: NCI-60 cell line screen, 48 h

Compound	GI50
COc1ccc(NC(=O)CCc2cc(C(C)(C)C)[nH]n2)cc1	inactive: > 100 µM
Nc1ccc2c(c1)NC(=O)[C@@H]1CCCN1C2=O	inactive: > 100 µM
COc1ccc(N(C)C(=O)N(C)c2ccc([N+](=O)[O-])cc2)cc1	inactive: > 100 µM
O=C1C2CCCCC2C(=O)N1n1c(Cc2ccc(Cl)cc2)n[nH]c1=O (stereo not given)	inactive: > 100 µM
Nc1nc2c(ncn2C2OC(CO)C(O)C2N)c(=O)[nH]1 (stereo not given)	inactive: > 100 µM
COc1ccc2nc3cc(Cl)ccc3c(NCCC(=O)OCC(O)C(O)C(O[C@H](C)C(=O)NC(C)C(=O)NC(CCC(N)=O)C(=O)OCc3ccccc3)C(C=O)NC(C)=O)c2c1 (stereo not given in full)	inactive: 19.2 µM
CCN(CC)CCN(/C(=N/c1ccccc1)N1CCOCC1)c1ccccc1	inactive: > 100 µM
COC(=O)[C@@]12OC[C@]34C([C@@H](O)C1O)[C@@]1(C)CC(=O)C(OC(=O)CC(C)C(F)(F)F)=C(C)C1C[C@H]3OC(=O)[C@H](O)[C@H]42 (stereo not given in full)	inactive: 22.2 µM
COc1ccc2c(c1)C(OC)C1c3c(cc4c(c3-2)OCO4)CCN1C (stereo not given)	inactive: 4.29 µM
CC1=C(c2cc(C(=O)Nc3cc(C)ccc3C)nc(N)n2)Sc2ccccc2N1	inactive: > 100 µM
Cn1c(=S)c2nc(SCCN3C(=O)c4ccccc4C3=O)[nH]c2n(C)c1=O	inactive: > 100 µM
COC1C(O)C(C)OC(OC2C(Oc3cccc4c(O)c5c(=O)oc6ccc(C)c7c(=O)oc(c34)c5c67)OC(C)C(O)C2O)C1O (stereo not given)	inactive: 2.37 µM
O=C1C(=O)N(c2ccc(Cl)c(Cl)c2)C(=O)C(=O)C1c1nc2ccccc2o1	inactive: > 100 µM
O=c1[nH]c(=O)n(C2CC(O)C(CO)O2)cc1OCc1ccccc1 (stereo not given)	inactive: > 100 µM
Cc1cc(=O)c2cc(/N=C/c3ccc([N+](=O)[O-])o3)ccc2o1	inactive: > 100 µM
COc1ccc2[nH]c3c(c2c1)CC(=S)N1CCCC(CC3=O)C1 (stereo not given)	inactive: 63.5 µM
CCN(CC)CC(C(C)=O)C(c1ccccc1)c1c(O)c2ccccc2oc1=O (stereo not given)	inactive: > 100 µM
COCOc1cc(OCOC)cc(C(=O)Oc2ccccc2)c1	inactive: > 100 µM
Nc1nncc2c1ccn2C1OC(CO)C(O)C1O (stereo not given)	inactive: > 100 µM
COCC1N=C(c2cc(OC)c(OC)c(OC)c2-c2cc3c(cc2C2OCCCO2)OCO3)O[C@H]1c1ccccc1 (stereo not given in full)	inactive: > 100 µM

Compound	GI50
CC(C)N1C(C)[C@@H](c2ccccc2)O[P@]1(=O)CC1=CCCCC1 (stereo not given in full)	inactive: > 100 µM
CCOC(=O)C(C(=O)c1ccccc1-c1ccccc1C(=O)O)=P(c1ccccc1)(c1ccccc1)c1ccccc1	inactive: 28.4 µM
CC(C)(C)C1=C(Br)C(O)(C(C)(C)C)OP1(=O)c1ccccc1 (stereo not given)	inactive: > 100 µM
Cc1cc2c(cc1Cl)SC(NN(C)C)=NS2(=O)=O	inactive: > 10 µM
CCC12C=C(C(=O)OC)N3c4ccccc4C4CCN(CCC1)C2C43 (stereo not given)	inactive: 77.1 µM
CCN(CC)CCCNc1ccc2nnn3c4ccc(O)cc4c(=O)c1c23	inactive: 8.83 µM
COC(=O)c1c(C)cccc1CC1Cc2c(C)cccc2C1=O (stereo not given)	inactive: 33 µM
C/C=C\C(CC(=O)O)CN1CCC2=C(C1)C(S(=O)(=O)C(F)(F)F)c1ccccc12 (stereo not given)	inactive: > 100 µM
O=C(O)CCCNc1ncc2c(n1)-c1ccccc1OC2	inactive: > 100 µM
CCCC(=O)/C=C/S/C=C/C(=O)CCC	inactive: 16.9 µM
Cc1c2c(c(C)c3c1[nH]c1ccccc13)CN(C)CC2	inactive: 18.7 µM
COc1ccc2c(CN3CCCCC3CO)cc3cc(OC)c(OC)cc3c2c1 (stereo not given)	inactive: 4.7 µM
NC(N)NCCCc1cn2c(n1)C1CCCN1C(=O)C2Cc1ccccc1 (stereo not given)	inactive: > 100 µM
CCN(CC)CCOC(c1ccccc1)c1ccccc1.CCOC(=O)Nc1ccc(S(=O)(=O)OC)cc1.CCOC(=O)Nc1ccc(S(=O)(=O)OC)cc1.Nc1ccc(C(=O)O)c(O)c1	inactive: > 100 µM
CC(=O)/C=C/c1ccc(C)cc1	inactive: > 100 µM
O=C1c2c(O)cccc2C(C(=O)CCCC(=O)C2c3cccc(O)c3C(=O)c3c(O)cccc32)c2cccc(O)c21	active: 0.935 µM
Oc1ncnc2c1nnn2CCCn1nnc2c(O)ncnc21	inactive: > 100 µM
CNc1c2cccc(C)c2nc2c(C(=O)NCCN(C)C)cccc12	active: 0.0668 µM
CCOP(=O)(/C=C/n1ccc(=O)[nH]c1=O)OCC	inactive: > 100 µM
CC(=O)C1(O)CCC2(O)C3(O)CC=C4CC(O)CCC4(C)C3CC(OC(=O)c3ccc(O)cc3)C12C.COC1CC(OC2C(C)OC(OC3C(C)OC(OC4CCC5(C)C(=CCC6(O)C5CC(OC(=O)c5ccc(O)cc5)C5(C)C(O)(C(C)=O)CCC65O)C4)CC3OC)CC2OC)OC(C)C1O (stereo not given)	inactive: 35.8 µM

Compound	GI50
O=C1[C@H](O)[C@@H]2CCC[C@@]23CCCN13	inactive: > 100 µM
CCC/N=C/c1cc(Cc2ccc(O)c(/C=N/CCC)c2)ccc1O	inactive: 12.2 µM
O=S(=O)(O)c1cc(S(=O)(=O)O)c2c(Nc3ccnc4ccccc34)ccc(S(=O)(=O)O)c2c1	inactive: > 100 µM
CC(C)(C)/N=c1/n(C(C)(C)C)oc(=O)n1-c1ccccc1	inactive: > 50 µM
Oc1ccc(-c2nc3ccc(F)cc3s2)cc1	inactive: 17.4 µM
CCNc1nnc(CSc2nc(-c3ccccc3)c(-c3ccccc3)[nH]2)s1	inactive: 18.5 µM
CC(C)C1=CC23CCC4C(C)(C(=O)O)CCCC4(C)C2CC1C1C(=O)N(c2ccccc2N2C(=O)C4C5CC6C7(C)CCCC(C)(C(=O)O)C7CCC6(C=C5C(C)C)C4C2=O)C(=O)C13 (stereo not given)	inactive: 3.21 µM
COC(=O)C(C(=O)C(=O)Nc1ccc(C)cc1C)c1nc2ccc([N+](=O)[O-])cc2nc1O (stereo not given)	inactive: > 100 µM
O=[N+]([O-])c1ccc2nc3c(nc2c1)-c1c2ccccc2cc2cccc-3c12	inactive: 69.3 µM
Fc1ccc(N2C(=S)SC(=N\c3ccccc3)/C2=N/c2ccccc2)cc1	inactive: > 100 µM
COc1cc(OC2OC(COC(=O)c3cc(O)c(O)c(O)c3)C(O)C(O)C2O)ccc1O (stereo not given)	inactive: > 100 µM
CCOC(=O)Cc1csc(N/C=C2/C(=O)Oc3ccccc3C2=O)n1	inactive: 23.3 µM
O=C(CCN1CCOCC1)c1ccc(Oc2ccc(F)cc2)cc1	inactive: > 100 µM
C=C1[C@@H]2CCC3[C@]4(C)C(CC[C@@]5(C)C(=O)O[C@H](O)[C@@H]45)[C@H](O)[C@]3(C2)[C@H]1OC1OC(CO)C(O)C(O)C1O (stereo not given in full)	inactive: > 50 µM
CCCCCCCCC[C@@H]1CC(=O)OCC2OC(O[C@H](CCCCCCCCC)CC(=O)OCC3OC(O[C@H](CCCCCCCCC)CC(=O)OCC4OC(O1)C(O)C(O)C4O)C(O)C(O)C3O)C(O)C(O)C2O (stereo not given in full)	inactive: 10.9 µM
Cc1cc(C)nc(NS(=O)(=O)c2ccc(Nc3c4ccccc4nc4c(C(=O)N5CCN(CCOS(C)(=O)=O)CC5)ccc(Cl)c34)cc2)n1	inactive: > 100 µM
C=CCC1(Sc2ccccn2)Sc2ccc3ccccc3c2-c2c(ccc3ccccc23)S1	inactive: > 100 µM
O=C1OC(c2ccccc2)=NC1c1ccccc1 (stereo not given)	inactive: > 100 µM
COc1cc(N(CCC#N)CCC#N)ccc1C(/N=N/c1ccccc1C)=N\NC(=O)c1ccc(C)cc1	inactive: > 100 µM
COC1=CC(=Nc2c(Cl)cc(Cl)cc2OC(=O)c2ccc([N+](=O)[O-])cc2)C=C(OC)C1=O	inactive: 17.2 µM

Reference: ChEMBL document CHEMBL1201862, “PubChem BioAssay data set” (2004)
